Sequences with one replicate were seen in a single cluster, so their values are uncertain.
What follows are sequences tested on ATP (assay: switch fluorescence ratio, 500 uM ATP over buffer (Cy3 cluster intensity, sum of 5 cycles each) (fold (ratio)); higher = stronger signal-on switching upon ATP binding; sequences stand for … in TCGTCGGCAGCGTCAGATGTGTATAAGAGACAGTTTTTTTTTTTTTTTTTTTTTTTTT…TC). Details: aptamer strand: ATP DNA aptamer (quencher-CACCTGGGGGAGTATTGCGGAGGAAGG + anchor), 100 nM annealed; ATP concentration: 500 uM; one replicate.
Procedure, shortened: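 Cy3-labelled switching-strand clusters on a modified Illumina MiSeq flow-cell were annealed to 100 nM quencher-labelled ATP aptamer and imaged first in selection buffer, then after 15 min with 500 uM ATP at 22 °C. NaOH stripping and re-annealing separated each of five buffer/ATP cycles, and clusters outside 100-1000 RFU were excluded. The fluorescence ratio sums target-cycle Cy3 intensity over buffer-cycle Cy3 intensity per cluster and averages it per switch-domain sequence.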
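Note: ATP exposure 15 min at 22 °C before imaging.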

**Q.** How did the switch fluorescence ratio turn out when AGAAGACTAA was run?
**A.** 1.03

**Q.** For AGAAGATTCG, which switch fluorescence ratio is on record?
**A.** 1.01

**Q.** Which switch fluorescence ratio does the source give for AGAAGCGGGG here?
**A.** 0.991

**Q.** How did the switch fluorescence ratio turn out when AGAAGCTCGG was run?
**A.** 0.977

**Q.** How did the switch fluorescence ratio turn out when AGAAGGATAG was run?
**A.** 0.951

**Q.** Which switch fluorescence ratio does the source give for AGAAGGCCAA here?
**A.** 0.959

**Q.** With AGAAGGTAGA as the sequence, how does the switch fluorescence ratio read?
**A.** 1.02

**Q.** Which switch fluorescence ratio does the source give for AGAAGTAGGG here?
**A.** 1

**Q.** Which switch fluorescence ratio does the source give for AGAAGTTATT here?
**A.** 0.999

**Q.** How did the switch fluorescence ratio turn out when AGAATAGGGC was run?
**A.** 1.13

**Q.** With AGAATCCAAC as the sequence, how does the switch fluorescence ratio read?
**A.** 1.02

**Q.** How did the switch fluorescence ratio turn out when AGAATGATGC was run?
**A.** 0.993

**Q.** How did the switch fluorescence ratio turn out when AGAATGTCTG was run?
**A.** 1.01

**Q.** How did the switch fluorescence ratio turn out when AGAATTACTG was run?
**A.** 1.06

**Q.** With AGACAATGAT as the sequence, how does the switch fluorescence ratio read?
**A.** 1.01

**Q.** How did the switch fluorescence ratio turn out when AGACAGAGCG was run?
**A.** 1.03

**Q.** AGACAGATGC was tested. Which switch fluorescence ratio did it give?
**A.** 0.989

**Q.** How did the switch fluorescence ratio turn out when AGACAGCCCC was run?
**A.** 1.05

**Q.** How did the switch fluorescence ratio turn out when AGACAGGGTG was run?
**A.** 0.981

**Q.** For AGACATACGG, which switch fluorescence ratio is on record?
**A.** 1.06

**Q.** With AGACATCGTA as the sequence, how does the switch fluorescence ratio read?
**A.** 0.944

**Q.** With AGACATTAAG as the sequence, how does the switch fluorescence ratio read?
**A.** 0.983

**Q.** How did the switch fluorescence ratio turn out when AGACCCCCTA was run?
**A.** 1.3

**Q.** AGACCCCTCA was tested. Which switch fluorescence ratio did it give?
**A.** 0.996

**Q.** Which switch fluorescence ratio does the source give for AGACCCTAGA here?
**A.** 0.989

**Q.** Which switch fluorescence ratio does the source give for AGACCTATTC here?
**A.** 1.06

**Q.** How did the switch fluorescence ratio turn out when AGACCTCATG was run?
**A.** 1

**Q.** How did the switch fluorescence ratio turn out when AGACCTGTAA was run?
**A.** 1.02

**Q.** For AGACGCTGCT, which switch fluorescence ratio is on record?
**A.** 0.986

**Q.** How did the switch fluorescence ratio turn out when AGACGGCCAC was run?
**A.** 1.46

**Q.** Which switch fluorescence ratio does the source give for AGACGTAGCG here?
**A.** 0.953

**Q.** How did the switch fluorescence ratio turn out when AGACGTATGC was run?
**A.** 0.961

**Q.** AGACGTTTGT was tested. Which switch fluorescence ratio did it give?
**A.** 1.01

**Q.** Which switch fluorescence ratio does the source give for AGACTAACCG here?
**A.** 0.974

**Q.** How did the switch fluorescence ratio turn out when AGACTAATCT was run?
**A.** 1.01

**Q.** AGACTGGCGA was tested. Which switch fluorescence ratio did it give?
**A.** 0.869

**Q.** AGACTTGTGG was tested. Which switch fluorescence ratio did it give?
**A.** 0.954

**Q.** For AGAGAAACTG, which switch fluorescence ratio is on record?
**A.** 0.987

**Q.** For AGAGAAAGTG, which switch fluorescence ratio is on record?
**A.** 1.03

**Q.** For AGAGACGCGG, which switch fluorescence ratio is on record?
**A.** 1

**Q.** AGAGACTGGG was tested. Which switch fluorescence ratio did it give?
**A.** 1.02

**Q.** With AGAGAGACAT as the sequence, how does the switch fluorescence ratio read?
**A.** 0.971

**Q.** AGAGAGGTCG was tested. Which switch fluorescence ratio did it give?
**A.** 1.02

**Q.** Which switch fluorescence ratio does the source give for AGAGAGTCGC here?
**A.** 1.06

**Q.** For AGAGATCGCG, which switch fluorescence ratio is on record?
**A.** 1.01

**Q.** With AGAGATCTGT as the sequence, how does the switch fluorescence ratio read?
**A.** 0.968

**Q.** For AGAGATTCTG, which switch fluorescence ratio is on record?
**A.** 1.01

**Q.** With AGAGCATTCG as the sequence, how does the switch fluorescence ratio read?
**A.** 1.02

**Q.** With AGAGCTCCTA as the sequence, how does the switch fluorescence ratio read?
**A.** 0.959

**Q.** AGAGCTGCGT was tested. Which switch fluorescence ratio did it give?
**A.** 1.03

**Q.** How did the switch fluorescence ratio turn out when AGAGGAGGTA was run?
**A.** 0.986

**Q.** With AGAGGCATTG as the sequence, how does the switch fluorescence ratio read?
**A.** 1.05

**Q.** With AGAGGCGCCA as the sequence, how does the switch fluorescence ratio read?
**A.** 1.03

**Q.** How did the switch fluorescence ratio turn out when AGAGGCGGAG was run?
**A.** 0.99

**Q.** Which switch fluorescence ratio does the source give for AGAGGCTTGA here?
**A.** 1.02

**Q.** With AGAGGGACGT as the sequence, how does the switch fluorescence ratio read?
**A.** 1

**Q.** AGAGGGAGCT was tested. Which switch fluorescence ratio did it give?
**A.** 0.969

**Q.** AGAGGGCTGG was tested. Which switch fluorescence ratio did it give?
**A.** 0.954

**Q.** Which switch fluorescence ratio does the source give for AGAGGGCTTA here?
**A.** 0.939

**Q.** Which switch fluorescence ratio does the source give for AGAGGGG here?
**A.** 0.977

**Q.** AGAGGGGATT was tested. Which switch fluorescence ratio did it give?
**A.** 0.988

**Q.** With AGAGTCCTAG as the sequence, how does the switch fluorescence ratio read?
**A.** 1

**Q.** AGAGTGACCT was tested. Which switch fluorescence ratio did it give?
**A.** 1.21

**Q.** Which switch fluorescence ratio does the source give for AGAGTGACTC here?
**A.** 1

**Q.** With AGAGTGCGGC as the sequence, how does the switch fluorescence ratio read?
**A.** 1.07

**Q.** For AGAGTGCTGG, which switch fluorescence ratio is on record?
**A.** 0.99

**Q.** How did the switch fluorescence ratio turn out when AGAGTTGCGC was run?
**A.** 1.05

**Q.** AGATAACGAG was tested. Which switch fluorescence ratio did it give?
**A.** 0.988

**Q.** For AGATAAGGAA, which switch fluorescence ratio is on record?
**A.** 0.991

**Q.** How did the switch fluorescence ratio turn out when AGATACATTT was run?
**A.** 1

**Q.** AGATACCTAT was tested. Which switch fluorescence ratio did it give?
**A.** 0.96

**Q.** Which switch fluorescence ratio does the source give for AGATACGTTG here?
**A.** 1.04

**Q.** AGATAGCAGA was tested. Which switch fluorescence ratio did it give?
**A.** 0.94

**Q.** With AGATAGCGTA as the sequence, how does the switch fluorescence ratio read?
**A.** 1

**Q.** For AGATAGTCAC, which switch fluorescence ratio is on record?
**A.** 1.01

**Q.** Which switch fluorescence ratio does the source give for AGATAGTTCT here?
**A.** 1.05

**Q.** How did the switch fluorescence ratio turn out when AGATATGCAC was run?
**A.** 1.05

**Q.** How did the switch fluorescence ratio turn out when AGATCCAGCA was run?
**A.** 1.05

**Q.** AGATCCAGTG was tested. Which switch fluorescence ratio did it give?
**A.** 1.04

**Q.** With AGATCCTACG as the sequence, how does the switch fluorescence ratio read?
**A.** 1.09

**Q.** Which switch fluorescence ratio does the source give for AGATCGGTGT here?
**A.** 1.03

**Q.** AGATCGTATG was tested. Which switch fluorescence ratio did it give?
**A.** 1.01

**Q.** Which switch fluorescence ratio does the source give for AGATCTACAC here?
**A.** 1.07

**Q.** AGATCTCAGC was tested. Which switch fluorescence ratio did it give?
**A.** 1.02

**Q.** How did the switch fluorescence ratio turn out when AGATGAGATC was run?
**A.** 1.01
